The results in this text go back to the supplement of paper PMC11417369.

± gives the standard deviation of the averaged measurements. This is one part of the list.

This assay deals with PfAP2-I AP2 domain 3 (GST-tagged). Nature of the assay: gcPBM binding intensity (ln(normalized median fluorescence intensity)); higher = stronger DNA binding. Summed up: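 GST-tagged P. falciparum DNA-binding domains produced in E. coli were incubated for 1 h on an Agilent 4 × 180k array of primer-extended double-stranded 36-bp intergenic genomic probes with negative controls. Binding intensity is the highest Masliner-normalised natural-log median intensity across replicate spots of either probe orientation, with bound protein detected by Alexa488 anti-GST antibody at 488 nm.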
Take “ATGTTCCATTTTACTTGTACTAATTTTTTCCTATCT [XGTACX_site6474]”: the “gcPBM binding intensity (ln)” value turned out to be 7.88 ± 0.84.

In the case of “ATTATTTTTAAAAATTGTACAGTATAAGAGAGAAAT [XGTACX_site7094]”, the “gcPBM binding intensity (ln)” value turned out to be 8.37 ± 0.5. With “AATAAAAAAATATATTGTACTAATAATTATATGTTT [XGTACX_site2246]”, the “gcPBM binding intensity (ln)” value is 7.58 ± 0.49. To “TATTGTAAAAAGATTACACACGTTCTATATACTTTT [CACACA_site5379]” belongs 7.72 ± 0.76. To “TTAATGGCAAAATAGGCACACACACCGATACATATA [CACACA_site8263]” belongs 8.03 ± 0.55.

As for “ATAATATTTAGGTGTGCACACAAACATACATATATA [CACACA_site9120]”, the “gcPBM binding intensity (ln)” value worked out at 9.7 ± 0.16. “ACAGTAGCCAGTAACTGTACGGATTGTAGAGATCAG [XGTACX_site4873]”: the “gcPBM binding intensity (ln)” value was determined as 7.74 ± 0.64. To “AAAAAATCACAACACACACACACACTAATAAAAAAA [CACACA_site8410]” belongs 7.96 ± 0.39; to “AAATCACATAAAACATAATCAAATGAAATATAATCA [CACACA_negctrl_site123]”, 7.38 ± 0.6; to “TAAATATTATTATATACATGCACTTACAACTTTTTT [TGCATGCA_site877]”, 8.55 ± 0.24.

For “ACTGTAAATTTATTCGGTACACATATAAATAATATT [XGTACX_site7346]”, the “gcPBM binding intensity (ln)” value amounted to 7.83 ± 0.63.

Consider AATTTTTGTTACAAGATGCACTTAATTTTTCTAAAT, for which the “gcPBM binding intensity (ln)” value is 8.9 ± 0.2. For “AATAAAAATTCAAGTTGTACTTTTTTAAAAATACAA [XGTACX_site3949]”, the “gcPBM binding intensity (ln)” value is 7.71 ± 0.15. Next, “AAATTGAGACAACAGGTGCATATAAATATACAGTGT [GTGCAC_site9634]”: 10.5 ± 0.23; “AAAATGAATAAAAATACACACATATATGTTATTCTC [CACACA_site2671]”: 7.43 ± 0.52; “AATAATATATATATTACACACTAATTGTATTATATA [CACACA_site448]”: 7.67 ± 0.24. Consider “CCAACATGCAGACGCACACACAAAAAAAGCATGCAT [CACACA_site74]”, for which the “gcPBM binding intensity (ln)” value stood at 8.18 ± 0.38. Next, “TTAATACCCGGACACACACACACAAAATAAAATACA [CACACA_site4296]”: 8.18 ± 0.23; “ATTTATTTATTTAGCTGTACATTTATACAGAACGAT [XGTACX_site3336]”: 7.79 ± 0.48; “TAACAATATCTAGATACACACACATATCTCTCAATC [CACACA_site8122]”: 7.58 ± 0.52. As for “TTTTCATACACTGCTAGTATATACTACCACTGACAT [GTGCAC_negctrl_site514]”, the “gcPBM binding intensity (ln)” value was found to be 8.88 ± 0.54. On to “AAACATATATTAAGCACACACAAACAAAAAAACAAA [CACACA_site2549]”, for which the “gcPBM binding intensity (ln)” value turned out to be 8.795 ± 0.049. Next, “ACACATAATATAAAGGTGCTATATTGTATTCATTTT [GTGCAC_site9457]”: 10.1 ± 0.2; “TGATTCATTGATAAGGGTACATTTATAATTATGATA [XGTACX_site6319]”: 7.59 ± 0.19; “ACGTATCAATTTATTGGTACACATAAATATATATAT [XGTACX_site5556]”: 9.08 ± 0.2. Next, “ACATTGAACAAAATAGTAAGCACATATATATATATA [GTGCAC_negctrl_site679]”: 9.39 ± 0.42.

As for “ATCATTTTGTGTTCAAGTACATAATGTTTTACACAA [XGTACX_site3565]”, the “gcPBM binding intensity (ln)” value was 7.77 ± 0.47. Take “AACGAAGCATAAAATGTTATGTATATATATAAATAT [TGCATGCA_negctrl_site304]”: the “gcPBM binding intensity (ln)” value came to 7.61 ± 0.69. To “TACCAAAAAAAAAAAATAATAATAAAAAAAAAAAAA [TGCATGCA_negctrl_site11]” belongs 7.85 ± 0.68; to “GCAAAACATTTTTAAAATAAAAATAATAAAATATAT [CACACA_negctrl_site219]”, 7.62 ± 0.64. Regarding “CATACATTATAAGATACATGCATATATCTGAACATA [TGCATGCA_site797]”, the “gcPBM binding intensity (ln)” value turned out to be 8.27 ± 0.74. To “ATGTGGAAATAGAGCACACATATATATAATATATAT [CACACA_site884]” belongs 9.63 ± 0.24; to “ATATATTATATAAAAAGTACTAAAATAGTAAGATGT [XGTACX_site7493]”, 8.2 ± 0.65.

As for “TATTCATTAAACCATACACACATAATTTTTTTATAA [CACACA_site4618]”, the “gcPBM binding intensity (ln)” value turned out to be 7.51 ± 0.43. Consider “GTGTGCCAAATTAGCACACACATATATACATGAATT [CACACA_site7346]”, for which the “gcPBM binding intensity (ln)” value was found to be 9.34 ± 0.15. Next, “TTATGAAAATATTTTTTTCGTTTGATGTATATGTTT [CACACA_negctrl_site1556]”: 7.43 ± 0.57; “AAAAAATATAAATATGTAAAAAGAGAAAAAAAAAAG [GTGCAC_negctrl_site9]”: 7.72 ± 0.48; “TGAAAATGGGAACCGTGTACAGGGCAGTTATAGGGG [XGTACX_site2950]”: 8.86 ± 0.62. In the case of “TATAAACATAAAACCAGTACATATATATTTTTCTTC [XGTACX_site212]”, the “gcPBM binding intensity (ln)” value came to 7.6 ± 0.41. Next, “ATATTTAATTCATCATGTACACAAATAAGAAACAAA [XGTACX_site8076]”: 8.22 ± 0.3; “TTGTTATGTTTTATTTGTACGTAGGTTTCTATCAAA [XGTACX_site7636]”: 8.12 ± 0.35.

Consider “AAATTGAAATATTCCTGTACACATTTTGAAAACTTA [XGTACX_site6101]”, for which the “gcPBM binding intensity (ln)” value was 7.75 ± 0.7.

Turning to “AAAATATAGTAACACATACACACATATATATTTATA [CACACA_site2504]”, the “gcPBM binding intensity (ln)” value was found to be 7.76 ± 0.65. Next, “TATTAAACTAAATGTAGTACATACACAAAAGAAACC [XGTACX_site606]”: 8.39 ± 0.45; “TGTTTGAATATAATCACACATTTATATAAAAAGTTA [CACACA_site5237]”: 7.36 ± 0.35; “TCTTTTTGCATGTGTGTGCGCACAAAATACACAAAA [GTGCAC_site9718]”: 10.5 ± 0.028. To “TAACAATAACTTTATACACACATAATATAAATATAT [CACACA_site7635]” belongs 7.62 ± 0.35; to “TAAAATTTTAACAAAAAAAAAAAAAAAAAAAGAAAA [CACACA_negctrl_site1335]”, 7.4 ± 0.47. To “ATAAAGAAAAATAGAAGTACATATATGCATGTTAAT [XGTACX_site4480]” belongs 8.38 ± 0.79; to “AACAATAAAAATAATTGTACAAGTCTAAAAAAAATT [XGTACX_site20]”, 7.63 ± 0.62; to “ATAACAAAATAATAATGTACGTATAAATATAATTTA [XGTACX_site6049]”, 7.82 ± 0.25.

“TATATCATCATGTATGTACACACATACATATATTAT [CACACA_site8387]”: the “gcPBM binding intensity (ln)” value came out at 7.82 ± 0.33. Next, “TACGTATTATAAATATGTACATATAATATGTATATA [XGTACX_site468]”: 7.54 ± 0.19; “CAAAAACATACCTACACACACAATATGTATATATAA [CACACA_site3514]”: 7.58 ± 0.49; “TGATAACCAAAAAGGGGTACATACACAAAAAAATAC [XGTACX_site1254]”: 8.66 ± 0.28.

With “AACAACATTTGATAAACACACAGAAGTATAAATATA [CACACA_site5327]”, the “gcPBM binding intensity (ln)” value was 7.67 ± 0.59.
